Laboratory results from PMC3894216 (PLoS Pathogens, 2014).
These are yes or no findings as the source states them, for the method shown. Some binding calls cover weakened binding; strength is not graded here.

Tests used:
[1] = target: T1, recombinant Lu/BCAM stably expressed on K562 cells (K562-Lu/BCAM) (UniProt P50895); assay: flow cytometry on cells; only the binder purified
T1 sequence: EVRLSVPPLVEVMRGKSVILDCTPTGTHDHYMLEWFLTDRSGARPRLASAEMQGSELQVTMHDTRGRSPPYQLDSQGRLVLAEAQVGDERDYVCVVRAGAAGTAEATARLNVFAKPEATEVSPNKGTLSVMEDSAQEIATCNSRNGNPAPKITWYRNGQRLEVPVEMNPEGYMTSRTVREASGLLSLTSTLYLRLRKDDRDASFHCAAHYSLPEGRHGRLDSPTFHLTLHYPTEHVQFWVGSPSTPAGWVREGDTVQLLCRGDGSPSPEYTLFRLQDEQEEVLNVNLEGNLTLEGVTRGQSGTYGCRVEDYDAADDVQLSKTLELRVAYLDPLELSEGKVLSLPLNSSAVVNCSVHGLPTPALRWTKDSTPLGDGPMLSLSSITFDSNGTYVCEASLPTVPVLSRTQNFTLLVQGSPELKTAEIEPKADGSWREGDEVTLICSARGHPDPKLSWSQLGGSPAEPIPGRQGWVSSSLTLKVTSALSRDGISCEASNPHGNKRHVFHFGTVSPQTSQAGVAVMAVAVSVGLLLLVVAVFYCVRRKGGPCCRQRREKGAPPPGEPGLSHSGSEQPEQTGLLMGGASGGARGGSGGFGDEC

[2] = target: T2, recombinant BCAM containing a C-terminal human IgG domain (UniProt P50895); assay: SPR; Biacore, anti-human IgG antibody coupled to CM5 chip, rBCAM with C-terminal human IgG domain (0.2 µM) captured on lane 2, GST-CNF proteins (1 µM) as analyte over both lanes, RU corrected for lane 1; both purified
T2 sequence (chain, fully glycosylated): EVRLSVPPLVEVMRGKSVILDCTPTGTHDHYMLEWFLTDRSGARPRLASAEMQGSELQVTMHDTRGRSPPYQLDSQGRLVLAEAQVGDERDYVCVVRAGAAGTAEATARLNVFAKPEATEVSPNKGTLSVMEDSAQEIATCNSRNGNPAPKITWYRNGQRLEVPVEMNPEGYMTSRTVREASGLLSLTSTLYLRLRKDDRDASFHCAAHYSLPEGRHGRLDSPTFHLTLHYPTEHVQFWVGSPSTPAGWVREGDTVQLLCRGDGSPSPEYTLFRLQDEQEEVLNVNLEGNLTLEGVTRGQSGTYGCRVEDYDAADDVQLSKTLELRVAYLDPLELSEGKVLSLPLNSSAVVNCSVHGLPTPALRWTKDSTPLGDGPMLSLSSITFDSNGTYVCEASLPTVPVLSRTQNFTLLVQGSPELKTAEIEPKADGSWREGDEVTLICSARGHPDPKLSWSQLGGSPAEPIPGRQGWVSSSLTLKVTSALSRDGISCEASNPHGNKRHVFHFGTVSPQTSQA

[3] = target: GST-CNF1-(426-1014) (Escherichia coli) (UniProt Q47106); assay: far-Western, overlay or dot blot; GST-CNFs, GST-CNF fragments and GST (5 µl of 3 µM) spotted on nitrocellulose, rBCAM overlaid (6 µM, 1 h, room temperature by the legend; 5 nM in TBST, 30 min, 4°C by the methods), detected with anti-Lu/BCAM antibody; both purified
[4] = target: GST-CNF1-(709-1014) (Escherichia coli) (UniProt Q47106); assay: as above
[5] = target: GST-CNF1 (full-length toxin) (Escherichia coli) (UniProt Q47106); assay: as above
[6] = target: GST-CNF1 N-terminal fragment (aa 1-342) (Escherichia coli) (UniProt Q47106); assay: as above
[7] = target: GST-CNF1-(720-1014) (Escherichia coli) (UniProt Q47106); assay: as above

For “DyLight488-labeled GST-CNF1 (from UniProt Q47106 1-1014)”, the binding [1] was “binds”.

In the case of “GST-CNF1 N-terminal fragment (aa 1-342) (from UniProt Q47106 1-342) (domain or fragment)”, the binding [2] is reported as “no binding (tested: 1 µM)”.

With “GST-CNF1-(426-1014) (from UniProt Q47106 426-1014) (domain or fragment)” the binding [2] was “binds”.

B1: recombinant BCAM containing a C-terminal human IgG domain (Fc fusion, UniProt P50895)
chain: T2 sequence (chain, fully glycosylated)
modifications: fully glycosylated
For B1, the binding [3] was “binds”, the binding [4] was “binds” and the binding [5] was “binds”. For the same molecule, the binding [6] was “no binding (tested: 6 µM rBCAM (legend); 5 nM (methods))” and the binding [7] was “binds”.

B2: PNGaseF-treated deglycosylated recombinant BCAM (Fc fusion, UniProt P50895)
chain: T2 sequence (chain, fully glycosylated)
modifications: N-glycans removed with PNGaseF (runs at 67 kDa instead of 84 kDa)
B2 was tested, and the binding [5] was “binds”.
